Reference: paper PMC10668032
The other results are listed elsewhere or left out. At the low end of the ranking, values are background and their order means little.

molecular target: SIX1-Q177R homeodomain (UniProt Q15475); test: universal protein binding microarray; conditions: Universal all-10-mer PBM (8x60K, AMADID 030236), 300 nM GST-tagged protein, Alexa Fluor 488 anti-GST; buffer, salt, pH and temperature not stated; high values mean tight binding; most listed sequences are background and not binding sites; double strand, one strand shown

Sequence	binding signal [E-score]
CAAACACA	0.19
AATATAAA	-0.149
AGAATTGG	-0.136
CGGCTCGC	-0.107
GCGCCGAC	-0.177
CGTCACCA	-0.0977
CGAGATAC	0.116
ACGCTTCA	-0.00284
CGTCTAAC	0.0446
AATGGACA	0.174
ACATCCAC	0.126
GCATTGGA	-0.0285
ACTGATTG	-0.133
TAGACCAA	-0.2
CAGAGTAC	0.0765
TTTCGAAA	-0.235
ACTTTCTC	-0.15
ACGGTTTC	0.0861
CACCGGCA	0.31
CCAAGGTC	-0.086
CCATGGGG	0.104
CGGCTACC	0.0213
CTGAATGC	-0.132
GCTACGAC	0.0388
CAGCTTAC	-0.0217

Sequence	binding signal [E-score]
CCTATTAC	0.106
ATACCCCA	0.254
TCAGGAGA	-0.192
GACCGCGA	-0.169
CCATTGTC	-0.00191
GATGTGAA	-0.06
CACTTCTG	0.196
CTCTTCCC	-0.0953
CCTCGGTC	0.0818
ACTCCTCA	0.0792
ACAATGAG	-0.00341
GGATGACA	0.115
CTCTAGAG	-0.19
CCACGGCC	-0.151
GCTCTTGA	-0.149
CACCGCGA	0.238
TAGAAAGA	0.0445
ACATCGAA	-0.206
CTCCATGA	-0.016
GGAGTTTA	0.0359
ACTGCATC	-0.00194
ATGTTGCA	-0.0583
CTGATTGC	-0.103
AGCTAAAC	-0.173
AGGATTGA	-0.166

Sequence	binding signal [E-score]
CTCCAGTC	0.0567
GTGAGATA	0.0583
AACATTAT	-0.0607
ACGGTTAC	0.0514
AACTCCCT	-0.0497
CTTGGTGC	0.143
AAAGGGGG	0.233
GCGACACC	0.487
GGTTCAGA	-0.104
AGTAGACA	0.135
CCGTGCAA	0.06
CTTATCCA	-0.0784
GCGCACAA	-0.0259
ATTCTATC	-0.122
AGAAGAAG	-0.186
GAATCAAC	-0.0746
CGCGTCCA	-0.0696
ATACTACG	-0.0539
GACAGCAA	-0.255
AATGCCGG	-0.111
GGACGGAA	-0.204
CCGGAAGA	-0.0112
CGCCACCC	0.19
CCCGTTTC	0.123
GACGGGTA	0.00861

Sequence	binding signal [E-score]
CCGAAGGC	-0.0854
CGTTTCGA	-0.0232
AGACGAAA	-0.331
ATTGCAAC	-0.0256
CTCTAGGA	-0.228
AACAGTCC	-0.225
AAGACCCT	0.0172
ACCCATTA	-0.00306
AGAAGGTA	0.0104
GAATAGAA	-0.168
AGATATTC	-0.0856
AAGAACCT	-0.0404
CCCACGTA	-0.0421
CACCCGGG	0.327
AACTTTCT	-0.18
AGTACTCG	0.018
GGCAGACC	-0.185
GCGCAACC	0.0525
CCGACTAC	0.0424
ACCAGTTG	0.119
ACGGGCGA	-0.0281
AAAGCCAC	-0.355
AGGCCCGA	-0.131
CGTCTCGC	0.0333
ATGCCGGG	-0.0554

Sequence	binding signal [E-score]
CTCACCAA	-0.00298
TCGATGCA	-0.0578
CGAATTGA	-0.0216
AGACTTTC	-0.242
CCTACTGA	0.0318
ATATATAG	-0.145
GAACCGTA	-0.239
CCCGTTGA	-0.0997
AATGGTCA	-0.0187
CCTGGACG	0.0741
GTTTCCTA	-0.0509
AGCAATCG	0.00404
CGGTCCCA	-0.0587
ACGCCTAT	0.13
AATGTGGC	-0.272
CTGGTTGC	-0.00346
CATTAGAG	-0.136
CACAAAGA	0.0749
AAGGTTAC	-0.046
TATCGGAA	-0.0381
GTTCAGCA	-0.0113
CCCACCCA	0.204
CTCAAACC	-0.195
CATACGCG	-0.0113
AAGTGCCT	-0.176

Sequence	binding signal [E-score]
AGTTGAAA	-0.0977
CATCCGAG	-0.0249
AGACCGCT	-0.21
GATTTACA	0.0536
CACATTTC	0.186
AGCCAGCT	-0.0564
AATTCTTG	-0.215
CACTTTGG	0.13
ACAATAGT	-0.0786
TTACCTAA	-0.0536
AGCATGAT	-0.149
AGGGCTGG	-0.0531
CTCGATGC	-0.135
GAATCTCA	-0.0599
TATAACGA	-0.0935
TAGATCGA	-0.253
CCCCCGCG	0.272
CGTCAGCC	-0.0293
GGTCATCA	0.044
CGGTGTCC	0.489
CTTACCGA	-0.218
AGCCGCGC	-0.202
AAGACAGC	-0.123
CATAGCCA	-0.229
GAATGAGA	-0.134

Sequence	binding signal [E-score]
CACGTGAA	0.121
GGTAGCAA	-0.146
CTCCAGTA	-0.151
GCCTCACA	0.0219
AAGTGCGC	-0.0909
AGAATAAG	-0.0682
ATTCTTCA	-0.27
AAGGACGT	0.0327
CAGTATTC	-0.0847
GTTTTGGA	0.089
ACCCAGGC	0.162
AGTTGCCG	0.00696
ACATACCG	0.148
GAAACTTA	-0.161
CGCAAGTC	0.0342
ACGAACAA	-0.0264
ACGATTAG	0.0335
CCGCGCGG	0.172
CCATGCTA	-0.131
ACCCAAAA	0.0852
AACGACAT	-0.0988
AGGCGCGC	-0.186
